According to publication PMC6919601, “Identification of Plasmodium dipeptidyl aminopeptidase allosteric inhibitors by high throughput screening” (PLoS ONE, 2019):
Out of some 110,000 compounds screened, about 230 (0.21%) showed an effect of 50% or more. This is one part of the list.

These compounds were tested against DPAP1 (Plasmodium falciparum, UniProt Q8IIJ9) (assay: primary screen, percent inhibition; read by cleavage of a fluorogenic dipeptide substrate; higher = more effect of the substance).
Design: species or system P. falciparum D10 trophozoite lysates; single well
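Further: 30 min substrate incubation versus DMSO and 10 µM JCP410 controls.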

DPAP1, sequence (Q8IIJ9 whole entry, looked up): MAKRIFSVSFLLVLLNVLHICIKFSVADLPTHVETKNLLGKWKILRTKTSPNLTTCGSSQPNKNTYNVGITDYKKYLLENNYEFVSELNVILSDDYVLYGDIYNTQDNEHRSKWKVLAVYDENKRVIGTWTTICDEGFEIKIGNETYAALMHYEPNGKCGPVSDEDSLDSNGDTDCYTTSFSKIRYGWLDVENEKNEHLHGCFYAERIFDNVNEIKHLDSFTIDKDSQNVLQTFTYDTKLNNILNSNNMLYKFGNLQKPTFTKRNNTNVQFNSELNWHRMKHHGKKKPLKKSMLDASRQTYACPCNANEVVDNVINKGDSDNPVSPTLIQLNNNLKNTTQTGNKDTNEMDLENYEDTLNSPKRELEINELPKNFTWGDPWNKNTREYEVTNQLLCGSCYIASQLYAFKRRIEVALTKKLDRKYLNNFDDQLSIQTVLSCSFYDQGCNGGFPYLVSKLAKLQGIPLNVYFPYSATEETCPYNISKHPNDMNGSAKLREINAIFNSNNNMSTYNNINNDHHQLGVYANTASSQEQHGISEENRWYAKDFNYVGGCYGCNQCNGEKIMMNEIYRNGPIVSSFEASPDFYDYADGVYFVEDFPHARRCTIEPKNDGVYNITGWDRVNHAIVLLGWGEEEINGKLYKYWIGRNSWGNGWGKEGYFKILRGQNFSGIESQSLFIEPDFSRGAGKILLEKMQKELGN

Compared with `CCN1CCC(C#N)(NC(=O)[C@H](Cc2c(F)cccc2F)NC(=O)c2ccc(-c3cc(C(=O)O)ccc3Cl)cc2)CC1`, `Cc1ccc(S(=O)(=O)c2nc(-c3ccc(Cl)cc3)oc2NCCCN2CCOCC2)cc1` is higher in “% Inhibition @ 10 uM” value: -3.48% for the first, -1.43% for the second.

Going from `CCc1nn(CC(=O)NCc2ccc(C)o2)c(=O)c2cc3c(OC)cccc3n12` to `Cc1c2cnn(CC(=O)NCc3cccnc3)c(=O)c2c(C)n1Cc1ccccc1F`, the “% Inhibition @ 10 uM” value falls from 4.84% to -2.17%.

First: COc1cccc(C2Nc3ccc(C(C)=O)cc3C3C=CCC32)c1OC (centres unmarked)
Second: CCOC(=O)c1cc(-c2nnc(-c3ccccc3OC)o2)c(C)nc1C
The “% Inhibition @ 10 uM” value of the first is lower: -3.19% for the first, -1.47% for the second.

Going from `CC1CCC(NC(=O)c2ccc(CSCc3cccc(F)c3)o2)CC1` (centres unmarked) to `Cc1c(C(=O)NC2CCN(Cc3ccccc3)CC2)sc2nc3n(c(=O)c12)CCCC3`, the “% Inhibition @ 10 uM” value falls from -4.53% to -6.34%.

First: CC(=O)CS(=O)(=O)c1ccc(-c2ccc(S(=O)(=O)CC(C)=O)cc2)cc1
Second: CC(=O)Nc1ccc(-c2cc(-c3ccc(NC(C)=O)cc3)nc(-c3ccc([N+](=O)[O-])cc3)n2)cc1
The “% Inhibition @ 10 uM” value of the first is higher: -0.687% for the first, -4.49% for the second.

Going from `CCCCN(CC)Cc1csc(C)c1CC` to `CCCCN(C1CCN(C)CC1)S(=O)(=O)c1csc(C(N)=O)c1`, the “% Inhibition @ 10 uM” value rises from -3.32% to -3.05%.

Going from `Cc1nn(-c2ccccc2)c(C)c1CC(=O)O` to `Cc1cc(C(=O)NCc2ccccn2)c2c(C)nn(-c3ccccc3)c2n1`, the “% Inhibition @ 10 uM” value rises from -6.99% to -6.03%.

Going from `O=C(CN(c1ccc(F)cc1)S(=O)(=O)c1ccccc1)NCc1ccco1` to `CCCN(CCC)S(=O)(=O)c1ccc(C(=O)NCc2nnc(S)n2-c2ccccc2)cc1`, the “% Inhibition @ 10 uM” value falls from 5.5% to 4.95%.

First: O=C(CC1(O)C(=O)Nc2ccc(Br)cc21)c1ccc(Cl)cc1 (centres unmarked)
Second: CCc1ccc(-c2ncccc2O)cc1N
The “% Inhibition @ 10 uM” value of the first is higher: 4.74% for the first, -0.999% for the second.

Going from `Cc1nn(C(C)C(=O)NC2CCCCCC2)c(=O)c2c1sc1ccccc12` (centres unmarked) to `Cc1ccccc1C(=O)NC1CCSC1=O` (centres unmarked), the “% Inhibition @ 10 uM” value rises from -0.229% to 3.85%.

Compared with `Cc1oc2ncnc(N3CCOCC3)c2c1C(=O)N(CCN(C)C)Cc1ccco1`, `O=C(c1cc2c(s1)-c1ccccc1OC2)N1CCN(Cc2ccccc2)CC1` is lower in “% Inhibition @ 10 uM” value: 2.09% for the first, -1.37% for the second.

Going from `Cn1c(=O)n(C)c2cc(C=C3C(=O)NC(=S)NC3=O)ccc21` to `CN1C/C(=C/c2ccc(Br)o2)C(=O)/C(=C/c2ccc(Br)o2)C1`, the “% Inhibition @ 10 uM” value falls from 4.68% to -4.65%.

First: CC1(C)Cc2ccccc2C(C(Cc2ccccc2)C(N)=O)=N1 (centres unmarked)
Second: CC1(C)OC(C)(C)/C(=C\c2ccccc2)C1=O
The “% Inhibition @ 10 uM” value of the first is higher: -2.39% for the first, -6.28% for the second.
